# Data published in PubChem BioAssay AID686978 (National Center for Advancing Translational Sciences (NCATS), 2013).
# Out of some 420,000 compounds screened, about 64,000 (15%) were called active. Inconclusive means that the source gave no clear call. Such entries were picked first, then a sample of the others. Calls follow the shape of the dose curve; as a rule, active = well fitted inhibition curve with a large enough effect; inconclusive = small, poorly fitted or top-dose-only effect; inactive = flat fitted curve, though single readings scatter. No potency is given beside an inconclusive call; the fits are too rough.
# Assay: qHTS for Inhibitors of human tyrosyl-DNA phosphodiesterase 1 (TDP1): qHTS in cells in absence of CPT; also: nearly all actives have a fitted effect of over 55% in size
# Conditions: DT40 Tdp1-/- hTDP1 cells, no CPT, ATP luminescence, 48 h; series mostly up to 46.2 µM
# In short: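 DT40 Tdp1-/-;hTDP1 cells, no CPT (DMSO vehicle only), 400 cells/well; compounds pin-transferred; ≥48 hr, 37 °C; CellTiter-Glo 30 min RT dark, luminescence read.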
# Potency is read from the fitted curve at half-maximal effect; tags tell the direction and shape of the fitted curve.
row,SMILES,Potency
1,Cc1nnc(OCc2nc3ccccc3n2C)c2ccccc12,"inconclusive [inhibitor, partial curve]"
2,Cc1ccc(S(=O)(=O)N2CCCCC2)cc1C(=O)OC(C)C(=O)NCC1CCCCC1 (stereo not drawn),active: 18.4 µM
3,COc1ccc(-c2ccc(C(=O)Nc3cc(OC)c(OC)c(OC)c3)c3occc23)c(C)c1,active: 23.1 µM
4,CCCn1c(SCc2nc(-c3ccc(OC)c(OC)c3)no2)nnc1-c1ccccc1,active: 18.4 µM
5,O=C(CCC(=O)c1ccc(F)cc1)Nc1cccc(S(=O)(=O)Nc2cccc(Cl)c2)c1,active: 23.1 µM
6,CC12CCC(=O)N1C(C(=O)NNC(=O)c1ccccc1F)CS2 (stereo not drawn),inactive
7,O=S(=O)(c1ccc2ccccc2c1)N1CCNCC1,inactive
8,Cc1nc([N+](=O)[O-])nn1C12CC3CC(CC(Br)(C3)C1)C2,"inconclusive [inhibitor, single point]"
9,C[n+]1cccc2ccc3c(c21)OC(N)=C(C#N)C3c1ccccc1 (stereo not drawn),"inconclusive [inhibitor, single point]"
10,Cc1cc[n+](CC(=O)c2ccc(NC(=O)c3ccccc3)cc2)c2ccccc12,active: 3.66 µM
11,COc1ccccc1N(O)C1CC(=O)N(c2ccc(F)cc2)C1=O (stereo not drawn),"inconclusive [inhibitor, single point]"
12,CC(C)Oc1ccc(C(=O)N2CCN(CCc3ccccn3)CC2)cc1,inactive
13,Cc1cc(C(=O)CSc2nnnn2C)c(C)n1CCc1ccc(F)cc1,inactive
14,CC(C)(C)c1ccc(C(=O)N2CCNCC2)cc1,inactive
15,Cc1ccc(CNC(=O)c2ccc(N3CCc4ccccc43)c([N+](=O)[O-])c2)cc1,"inconclusive [inhibitor, single point]"
16,O=C(NCCc1ccccc1)C1CCC(CNS(=O)(=O)c2ccccc2)CC1 (stereo not drawn),inactive
17,OC1CCCN(c2c3c(nc4cc(-c5cccc(Cl)c5)nn24)CCC3)C1 (stereo not drawn),"inconclusive [inhibitor, single point]"
18,COc1ccc(-c2noc(CCC(=O)N(C)c3cccc(C)c3)n2)cc1,"inconclusive [inhibitor, single point]"
19,CN(CC(=O)O)c1ccc(C=O)cc1,inactive
20,COC(=O)c1ccc(CN2C(=O)NC(Cc3c[nH]c4ccccc34)C2=O)cc1 (stereo not drawn),"inconclusive [inhibitor, partial curve, poor fit]"
21,COc1ccc(CNC(=O)c2cn(Cc3ccc(OC(C)=O)cc3)c(=O)s2)cc1,"inconclusive [inhibitor, partial curve]"
22,COc1ccc(/C(C)=N\Nc2nc(-c3ccccc3)cc(=O)[nH]2)cc1,inactive
23,CCSc1ncc(/C=N/Nc2ccc(F)cc2)n1C,"inconclusive [inhibitor, partial curve]"
24,Cc1cc2c(cc1C)N[C@]1(C[C@H]3CCCC(=O)N4CC[C@@H](C1)[C@@H]34)C(=Nc1ccccc1C)N2,"inconclusive [inhibitor, single point]"

row,SMILES,Potency
1,CC1CCCN(C(=O)C2CCN(S(=O)(=O)c3ccccc3)CC2)C1 (stereo not drawn),inactive
2,C=CCNC(=S)NNC(=O)COc1c(Cl)cc(Cl)cc1Cl,inactive
3,CCOC(=O)c1ccccc1NC(=O)C1=COCCO1,"inconclusive [inhibitor, single point]"
4,Cc1cc(Cc2cc(C)c(O)c(CO)c2)cc(CO)c1O,"inconclusive [inhibitor, single point]"
5,CC(=O)c1cccc(NC(=O)C2Cc3c(-c4cccc(C(C)=O)c4)ccnc3O2)c1 (stereo not drawn),active: 14.6 µM
6,Oc1cccc2ccc(/C=C/c3cccs3)nc12,active: 14.1 µM
7,Cc1cccc(S(=O)(=O)N2CCCc3ccccc32)c1,"inconclusive [inhibitor, single point]"
8,COc1ccc(CC(N)c2csc(Nc3nncc4ccccc34)n2)cc1 (stereo not drawn),active: 18.4 µM
9,CCC(C(=O)NC1CCCCC1)N(Cc1cccs1)C(=O)c1snc(C(N)=O)c1N (stereo not drawn),"inconclusive [inhibitor, single point]"
10,Cc1c(NC(=O)Nc2ccc([N+](=O)[O-])cc2)c(=O)n(-c2ccccc2)n1C,active: 20.6 µM
11,Cc1ccc(NC(=O)C(C)Sc2nc(=O)cc(N)n2-c2cccc(C)c2)cc1 (stereo not drawn),inactive
12,CCOC(=O)N1CCN(CC(O)COc2ccc(C)cc2C(C)(C)C)CC1 (stereo not drawn),"inconclusive [inhibitor, single point]"
13,Cc1c(C2=CCN(S(=O)(=O)c3cccc(Cl)c3)CC2)c2ccccc2n1CC(=O)N1CCCC1,"inconclusive [inhibitor, single point]"
14,CN(Cc1ccccc1)S(=O)(=O)c1ccc(-c2cnc(C3CC3)o2)cc1,"inconclusive [inhibitor, single point]"
15,CCOc1ccc2nc(Cl)c(CN(C(C)=O)C3CCCCC3)cc2c1,inactive
16,CCCCC(=O)N1CCN(c2nc3ccc(Cl)cc3s2)CC1,"inconclusive [inhibitor, partial curve]"
17,O=C(C1=C[C@@H](C2CCCCC2)C[C@@H](OCc2ccc(CO)cc2)O1)N1CCN(Cc2ccc3c(c2)OCO3)CC1,active: 16.4 µM
18,Cc1sc2ncnc(SCC(=O)N(C(C)C)C(C)C)c2c1C,inactive
19,O=C(Nc1cccnc1)c1ccc2ccccc2c1O,active: 13 µM
20,COc1ccc(CN2CCCC(C(=O)Nc3cccc(-n4cccn4)c3)C2)cc1 (stereo not drawn),"inconclusive [inhibitor, single point]"
21,O=C1CCN(CCc2ccccc2)CCN1[C@H](CSc1ccc(Br)cc1)Cc1ccccc1,active: 14.6 µM
22,O=C(c1cc(COc2ccc(F)cc2Cl)on1)N1CCCC(c2ccccc2)C1 (stereo not drawn),"inconclusive [inhibitor, single point]"
23,COc1ccc(NC(=O)C(=O)NCC(c2cccnc2)N2CCc3ccccc32)cc1OC (stereo not drawn),active: 20.6 µM
24,CCc1ccc(-c2nc3c(c(SCc4ccccc4F)n2)Cc2c(CO)cnc(C)c2O3)cc1,inactive
